In PubChem BioAssay AID602310 (National Center for Advancing Translational Sciences (NCATS), 2012):
About 310 (0.076%) of roughly 410,000 compounds were called active. The inconclusive results got no clear call from the source; some entries with a clear call stand among them for comparison. Calls follow the shape of the dose curve; as a rule, active = well fitted curve in the direction sought with a large enough effect; inconclusive = small, poorly fitted or top-dose-only effect; inactive = flat fitted curve, though single readings scatter. Potencies of inconclusive entries are doubtful fits and often do not repeat.

Molecular target: DNA dC->dU-editing enzyme APOBEC-3G (Homo sapiens) (UniProt Q9HC16)
Sequence of UniProt Q9HC16 (Q9HC16 whole entry, looked up): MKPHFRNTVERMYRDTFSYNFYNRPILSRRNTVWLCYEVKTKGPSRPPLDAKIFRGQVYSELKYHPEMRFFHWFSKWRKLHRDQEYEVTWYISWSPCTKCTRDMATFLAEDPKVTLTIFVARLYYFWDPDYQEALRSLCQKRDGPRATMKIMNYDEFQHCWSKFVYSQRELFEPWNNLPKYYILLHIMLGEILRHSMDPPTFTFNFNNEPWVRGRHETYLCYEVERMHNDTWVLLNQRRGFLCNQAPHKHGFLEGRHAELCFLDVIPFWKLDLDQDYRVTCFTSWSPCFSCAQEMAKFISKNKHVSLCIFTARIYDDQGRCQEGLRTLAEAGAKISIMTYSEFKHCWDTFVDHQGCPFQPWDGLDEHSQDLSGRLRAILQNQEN
Test: qHTS for Inhibitors of Vif-A3G Interactions: qHTS; also: nearly all actives have a fitted effect of over 60% in size;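 as to activity, negative = active: hits raise eYFP signal because A3G escapes Vif-driven loss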
Settings: HeLa A3G-eYFP + Vif (tagged APOBEC3G with the HIV-1 protein that degrades it), YFP fluorescence, overnight; series mostly up to 46.1 µM; activity, negative = active: at the top concentration
Summary of the method: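 Read-out is eYFP fluorescence (Ex 488/Em 500-530) from Vif-expressing HeLa A3G-eYFP cells; more signal means A3G escaped Vif-mediated degradation. Cells plated overnight, compound pinned in, incubated overnight at 37 deg C.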
% is scaled to controls: 0 for no effect and ±100 for the full control effect; potency is read from the fitted curve at half-maximal effect; tags tell the direction and shape of the fitted curve.

Row | Structure (SMILES) | Potency | activity, negative = active
1 | COc1ccc(Cl)cc1NC(=O)CN(C)C(=O)c1cc(-c2ccncc2)nc2ccccc12 | inconclusive: 35.5 µM [inhibitor, partial curve, poor fit] | –
2 | COc1ccc(-n2c(C)cc(/C=C3\SC(=S)N(Cc4ccco4)C3=O)c2C)cc1 | inconclusive: 17.8 µM [inhibitor, single point] | –
3 | Cc1cc(-c2ccc(C(C)C)c(S(=O)(=O)N3CCN(c4ccccc4)CC3)c2)on1 | inconclusive: 1.26 µM [inhibitor, full curve, poor fit] | –
4 | O=C(N/N=C/c1c[nH]c2ccccc12)c1ccc2c(c1)OCCO2 | inconclusive: 11.2 µM [inhibitor, partial curve, poor fit] | –
5 | CC(=O)c1ccc2c(c1)C1C=CCC1C(c1cc3c(cc1Br)OCO3)N2 (stereo unspecified) | inconclusive: 3.16 µM [inhibitor, partial curve, poor fit] | –
6 | Cc1nnc2n1N=CC=C(c1ccccc1)S2 | inconclusive: 35.5 µM [inhibitor, single point] | –
7 | NC(=O)c1cccc(-c2ccnc3c2CC(C(=O)NCc2cccc(Cl)c2)O3)c1 (stereo unspecified) | inconclusive: 12.6 µM [inhibitor, single point] | –
8 | CC(=O)Nc1ccc(S(=O)(=O)N2CCC(c3nnnn3-c3ccccc3)CC2)cc1 | – | inactive: -3.43%
9 | Cc1nc2ccccc2n2c(O)c(CC(=O)O)cc12 | – | inactive: 1.66%
10 | O=C(CN1c2ccccc2Sc2ccccc21)NNC(=O)Nc1cccc(Cl)c1 | inconclusive: 11.2 µM [inhibitor, partial curve, poor fit] | –
11 | CC(C)n1cc(/C=C2\NC(=O)N(c3cccc(Cl)c3)C2=O)c2ccccc21 | inconclusive: 8.91 µM [inhibitor, partial curve] | –
12 | CC(/C=N/NC(=O)c1cc(-c2ccc(C)s2)[nH]n1)=C\c1ccccc1 | inconclusive: 3.16 µM [inhibitor, full curve] | –
13 | Oc1ccc(NCc2ccccc2OCc2ccccc2F)cc1 | inconclusive: 31.6 µM [inhibitor, single point] | –
14 | CCn1nc(C)c(C(=O)Nc2cc(Oc3ccc(Cl)cc3)cc([N+](=O)[O-])c2)c1C | inconclusive: 15.8 µM [inhibitor, single point] | –
15 | Cc1ccccc1CNc1ccc(C(CC(N)=O)NC(=O)c2ccc(Br)cc2)cc1[N+](=O)[O-] (stereo unspecified) | inconclusive: 28.2 µM [inhibitor, single point] | –
16 | O=C(NC1CCCCC1)c1ccc([N+](=O)[O-])o1 | inconclusive: 14.1 µM [inhibitor, single point] | –
17 | Cc1ccc(NC(=O)/C=C/c2ccc([N+](=O)[O-])s2)c(C)c1 | inconclusive: 7.08 µM [inhibitor, full curve, poor fit] | –
18 | CCCOc1ccc(CNC(=S)Nc2ccccc2)cc1Cl | – | inactive: -4.44%
19 | Cc1cc(C)c2nc(Cl)c(CN(Cc3ccco3)C(=O)Nc3ccccc3C)cc2c1 | inconclusive: 1.26 µM [inhibitor, full curve, poor fit] | –
20 | CCC(C)[C@H](NC(=O)N1CC(=O)Nc2ccccc21)C(=O)Nc1ccccc1C (stereo partly specified) | inconclusive: 8.91 µM [inhibitor, partial curve, poor fit] | –
21 | O=[N+]([O-])c1ccc(N=Nc2c(Cl)cc(O)cc2Cl)cc1 | inconclusive: 10 µM [inhibitor, partial curve, poor fit] | –
22 | Cc1nn2c(C)c(C(=O)NC(C)(C)C)cnc2c1-c1ccc(F)cc1 | – | inactive: 0.179%

Row | Structure (SMILES) | Potency | activity, negative = active
23 | O=C(CN1C(=O)S/C(=C\c2cc(Cl)c(O)c(Cl)c2)C1=O)Nc1ccccc1 | inconclusive: 6.31 µM [inhibitor, partial curve, poor fit] | –
24 | Cc1cc(C)cc(OCc2nnc(SCC(=O)c3ccc(Br)cc3)o2)c1 | inconclusive: 31.6 µM [inhibitor, single point] | –
25 | COc1ccccc1/C=C/C(=O)N1CCC(c2ccccc2)C1 (stereo unspecified) | inconclusive: 17.8 µM [inhibitor, single point] | –
26 | CN(C)c1ccc(/C=C/c2c(F)cnc3ccccc23)cc1 | inconclusive: 2.82 µM [inhibitor, full curve] | –
27 | O=C(NCCc1ccc(F)cc1)Nc1ccc([N+](=O)[O-])cc1 | – | inactive: -2.33%
28 | COc1ccc2c(c1)sc(N)[n+]2Cc1cc(C)cc2cccnc12 | inconclusive: 1.26 µM [inhibitor, full curve, poor fit] | –
29 | COc1ccc(Cl)cc1C(Nc1cccnc1)c1ccc2cccnc2c1O (stereo unspecified) | inconclusive: 20 µM [inhibitor, single point] | –
30 | CN(C)C=Nc1c(Br)cc(Br)c2nonc12 | inconclusive: 6.31 µM [inhibitor, partial curve, poor fit] | –
31 | O=C(N/N=C\c1ccc(-c2ccc([N+](=O)[O-])cc2)o1)C1COc2ccccc2O1 (stereo unspecified) | – | inactive: 0.964%
32 | O=C(NCCc1ccccc1)C(=O)NCC1CCCN1S(=O)(=O)c1ccccc1 (stereo unspecified) | inconclusive: 10 µM [inhibitor, partial curve] | –
33 | Cc1cc(C(=O)N/N=C/c2ccc(Cl)c([N+](=O)[O-])c2)c(C)n1-c1ccc(F)cc1 | inconclusive: 20 µM [inhibitor, single point] | –
34 | COc1cc(C2c3cc4c(cc3OC(NCCc3ccccc3)C2C)OCO4)cc(OC)c1OC (stereo unspecified) | inconclusive: 0.631 µM [inhibitor, full curve, poor fit] | –
35 | COc1cc2c3nnc(-c4ccc(F)cc4)c-3cn(Cc3ccc(F)cc3)c2cc1OC | inconclusive: 22.4 µM [inhibitor, single point] | –
36 | O=C1C=C(Nc2cccc3cccnc23)c2ccccc2C1=O | inconclusive: 0.891 µM [inhibitor, full curve, poor fit] | –
37 | Cc1ccc(C(C(=O)NC2CCCCC2)N(Cc2ccco2)C(=O)Cc2c[nH]c3ccccc23)o1 (stereo unspecified) | – | inactive: -1.08%
38 | CCC(=O)Nc1ccccc1-c1nc2ccccc2n(CC(=O)Nc2ccccc2OC)c1=O | inconclusive: 7.94 µM [inhibitor, partial curve] | –
39 | CCN1/C(=C\C=C(C(C)=O)C(C)=O)Sc2ccccc21 | active: 22.4 µM | –
40 | CCN1CCc2c(sc(-n3cccc3)c2C(C)NC(=O)Nc2ccc(Br)cc2)C1 (stereo unspecified) | inconclusive: 25.1 µM [inhibitor, single point] | –
41 | COc1cccc(CNc2ncc(-c3ccccc3)n2C)c1 | inconclusive: 35.5 µM [inhibitor, single point] | –
42 | CCCc1cc(=O)n2[nH]c(SCc3ccc(Cl)cc3)nc2n1 | – | inactive: -1.98%
43 | CCOc1ccc(C2C(C(=O)c3ccc(C)o3)=C(O)C(=O)N2CCN2CCOCC2)cc1OC (stereo unspecified) | – | inactive: 1.57%
44 | CCCc1nc2c(C)cc(Br)cn2c1Cc1ccccc1C(F)(F)F | inconclusive: 25.1 µM [inhibitor, single point] | –

Row | Structure (SMILES) | Potency | activity, negative = active
45 | Cc1ccc(C)c(Sc2ccc(S(=O)(=O)Nc3ccc(C(=O)O)cc3)cc2)c1 | inconclusive: 17.8 µM [inhibitor, single point] | –
46 | CCN(CC)C(=O)c1ccc(/C=C/c2c[nH]c3ccccc23)[n+](C)c1 | inconclusive: 11.2 µM [inhibitor, partial curve, poor fit] | –
47 | COc1cc(C(=O)OCC(C)=O)ccc1OCc1c(C)noc1C | inconclusive: 6.31 µM [inhibitor, partial curve, poor fit] | –
48 | CCN(CC)c1ccc(/C=C/c2nccc3ccccc23)cc1 | inconclusive: 2.82 µM [inhibitor, partial curve, poor fit] | –
49 | Cc1ccc(-n2c(SCC(=O)NCc3ccco3)nc3nc4c(cc3c2=O)COC(C)(C)C4)cc1 | – | inactive: 0.795%
50 | O=C(Nc1ccc2nc(-c3cccs3)c(-c3cccs3)nc2c1)NC1CC1 | – | inactive: 1.99%
51 | CN(C)C(=S)N=c1ssc(=S)n1Cc1ccccc1 | inconclusive: 1.41 µM [inhibitor, full curve, poor fit] | –
52 | CC(=O)NC1=NN(C(C)=O)C(C)(c2ccc(Cl)s2)S1 (stereo unspecified) | inconclusive: 6.31 µM [inhibitor, full curve] | –
53 | CN=C1NC(C)(C)C2CCC(C)(CC2)S1 | – | inactive: 1.51%
54 | O=C(NCc1ccc(Cl)cc1)NC1COc2ccccc2C1 (stereo unspecified) | – | inactive: 2.84%
55 | CCOc1cc(C)c(C(C)C)cc1S(=O)(=O)n1cnc(C)c1 | inconclusive: 3.55 µM [inhibitor, full curve] | –
56 | O=C(Nc1ccc(Br)cc1)N1CCCCCCC1 | – | inactive: -3.52%
57 | COc1ccc(-c2ccc(OC)c(C3C4C=CCCC4(C)C(=O)N3Cc3ccccc3)c2)cc1OC (stereo unspecified) | – | inactive: -0.225%
58 | Cc1ccc(NC(=O)CN2C(=O)NC3(CCc4ccccc43)C2=O)cc1Cl (stereo unspecified) | inconclusive: 35.5 µM [inhibitor, single point] | –
59 | CCOc1ccc(S(=O)(=O)Nc2ccc3oc4c(c3c2)CC(C)CC4)cc1 (stereo unspecified) | inconclusive: 28.2 µM [inhibitor, single point] | –
60 | O=C(Nc1ccc(C(=O)OC[C@@H]2CCCN3CCCC[C@H]23)cc1)c1cccc(Br)c1 | – | inactive: -4.89%
61 | CCN(CCCNC(=O)CN1N=C(c2ccccc2)CCC1=O)c1ccccc1 | – | inactive: 1.72%
62 | CCC(C)N1C(=O)/C(=C/c2c(NCCCOC(C)C)nc3c(C)cccn3c2=O)SC1=S (stereo unspecified) | inconclusive: 2.51 µM [inhibitor, full curve, poor fit] | –
63 | CSc1ccc(/C=N/NC(=O)c2ccc3nc[nH]c3c2)cc1 | inconclusive: 5.62 µM [inhibitor, full curve] | –
64 | O=C(NCCN1CCN(c2ccccc2)CC1)c1cccn2c(=O)c3cc(Cl)ccc3nc12 | – | inactive: -6.27%
65 | N=c1c(C(=O)NCC2CCCO2)cc2c(=O)n3ccccc3nc2n1Cc1ccc(F)cc1 (stereo unspecified) | – | inactive: -0.18%
66 | CCOc1ccc2[nH]c(C(=O)N/N=C/c3ccccc3OC)cc2c1 | inconclusive: 2.51 µM [inhibitor, full curve, poor fit] | –
